Data as given in article PMC12455566, “Structural Elucidation and Covalent Modulation of the Autorepressed Orphan Nuclear Receptor NR2F6” (ACS Chemical Biology, 2025).

How the values were obtained:
NR2F6 LBD = target: T1, NR2F6 LBD (Homo sapiens, UniProt P10588); experiment: bio-NSD1 titration (TR-FRET)
T1 sequence (P10588 164-404): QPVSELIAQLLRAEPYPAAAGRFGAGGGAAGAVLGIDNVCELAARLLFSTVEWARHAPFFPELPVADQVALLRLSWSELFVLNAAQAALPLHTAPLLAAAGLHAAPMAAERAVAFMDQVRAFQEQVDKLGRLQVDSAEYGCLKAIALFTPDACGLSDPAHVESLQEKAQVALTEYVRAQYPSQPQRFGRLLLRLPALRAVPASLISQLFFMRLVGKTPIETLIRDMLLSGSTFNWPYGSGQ

MBP-NR2F6 fusion = experiment: DSF of MBP-NR2F6 with coregulator peptides; type: binding, human; details: peptide with 2.5 µM MBP-NR2F6, DSF, pH 7.5
NR2F6^E204A = experiment: TR-FRET coregulator peptide recruitment, E204A; type: binding, human; details: 250 nM biotinylated peptide, three independent experiments
Description: (§1) Primers were purchased from Integrated DNA Technologies. […] Mutations were confirmed by sequencing (Baseclear). […] ice. […] 1.6 Biochemical Assays […] Data recorded in triplicate. […] N-terminal

NR2F6^F211A = experiment: TR-FRET coregulator peptide recruitment, F211A; type: binding, human; details: 250 nM biotinylated peptide, three independent experiments
Description: as §1

[1] = target: T2, NSD1 peptide (FAM-labeled) FSXXLXXL motif peptide (Homo sapiens, UniProt Q96L73); experiment: fluorescence anisotropy
T2 chain: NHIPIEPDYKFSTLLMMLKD

[2] = target: T3, NSD1 peptide (biotinylated) FSXXLXXL motif peptide (Homo sapiens, UniProt Q96L73, biotinylated NSD1 peptide); experiment: TR-FRET
T3 chain: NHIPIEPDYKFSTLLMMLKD

[3] = target: T4, NSD1 peptide (FAM-labeled) FSXXLXXL motif peptide (Homo sapiens, UniProt Q96L73, FAM-labeled NSD1 peptide); experiment: fluorescence anisotropy
T4 chain: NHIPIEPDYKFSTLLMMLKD

[4] = target: T5, BCL11A-1 peptide (RID1) F/YSXXLXXL/Y motif peptide (RID1) (Homo sapiens, UniProt Q9H165); experiment: TR-FRET displacement of bio-NSD1
T5 chain: Ac-EPPAMDFSRRLRELAGNT

Molecule: CC[C@H](C)[C@H](NC(=O)[C@@H]1CCCN1C(=O)[C@@H](NC(=O)[C@H](Cc1c[nH]cn1)NC(=O)[C@H](CC(N)=O)NC(=O)[C@H](CCC(N)=O)NC(=O)[C@H](CO)NC(=O)[C@H](CO)NC(=O)[C@H](C)NC(=O)CCCCCNC(=O)CCCC[C@@H]1SC[C@@H]2NC(=O)N[C@@H]21)[C@@H](C)CC)C(=O)N[C@@H](CCC(=O)O)C(=O)N1CCC[C@H]1C(=O)N[C@@H](CC(=O)O)C(=O)N[C@@H](Cc1ccc(O)cc1)C(=O)N[C@@H](CCCCN)C(=O)N[C@@H](Cc1ccccc1)C(=O)N[C@@H](CO)C(=O)N[C@H](C(=O)N[C@@H](CC(C)C)C(=O)N[C@@H](CC(C)C)C(=O)N[C@@H](CCSC)C(=O)N[C@@H](CCSC)C(=O)N[C@@H](CC(C)C)C(=O)N[C@@H](CCCCN)C(=O)N[C@@H](CC(=O)O)C(=O)N[C@@H](CCSC)C(=O)N[C@@H](Cc1c[nH]cn1)C(=O)N[C@@H](CC(=O)O)C(=O)N[C@@H](CO)C(=O)N[C@@H](CCCCN)C(=O)N[C@H](C(N)=O)[C@@H](C)O)[C@@H](C)O [bio-NSD1] ({Biotin-Ahx}-ASSQNHIPIEPDYKFSTLLMMLKDMHDSKT-NH2)
- Kd (NR2F6 LBD): 1.8 ± 0.1 µM

Molecule: Ac-ENVYSQWLAGYAASRQLKD-NH2 (N-terminus and C-terminus assumed) [BCL11A-2]
- effect on protein melting temperature (in words) (MBP-NR2F6 fusion): increased the protein melting temperature
- recruitment of coregulator peptide (in words) (NR2F6^E204A): failed to induce recruitment
- recruitment of coregulator peptide (in words) (NR2F6^F211A): failed to induce recruitment

B1: NR2F6 LBD (protein)
chain: PVSELIAQLLRAEPYPAAAGRFGAGGGAAGAVLGIDNVCALAARLLFSTVEWARHAPFFPELPVADQVALLRLSWSELFVLNAAQAALPLHTAPLLAAAGLHAAPMAAERAVAFMDQVRAFQEQVDKLGRLQVDSAEYGCLKAIALFTPDACGLSDPAHVESLQEKAQVALTEYVRAQYPSQPQRFGRLLLRLPALRAVPASLISQLFFMRLVGKTPIETLIRDMLLSG
- Kd [1]: > 150 µM

B2: NR2F6 LBD (protein)
chain: B1 chain with A40E
- Kd [2]: 1.8 µM
- Kd [3]: 12.7 µM
- IC50 [4]: 52 µM

B3: NR2F6 LBD (protein)
chain: B1 chain with A40E, F47A
- Kd [1]: > 150 µM

Positions count from the first letter of the chain named. Ends that are not written are not given here. Peptide text beside a SMILES is read from it. * marks the point of attachment. Biotin = O=C1N[C@H]2[C@H](CS[C@H]2CCCCC(=O)*)N1; Ahx = NCCCCCC(=O)O
